In PMC4336329 (PLoS ONE, 2015):
The whole screen tested about 310,000 compounds, of which about 2,200 (0.71%) showed an effect of 50% or more. Effects have a minus sign here. This is one part of the list.

These compounds were tested against human ether-à-go-go-related gene (hERG) potassium channel (human, UniProt Q12809) (assay: primary screen, population patch clamp on CHO cells stably expressing hERG).
human ether-à-go-go-related gene (hERG) potassium channel, sequence (Q12809 whole entry, looked up): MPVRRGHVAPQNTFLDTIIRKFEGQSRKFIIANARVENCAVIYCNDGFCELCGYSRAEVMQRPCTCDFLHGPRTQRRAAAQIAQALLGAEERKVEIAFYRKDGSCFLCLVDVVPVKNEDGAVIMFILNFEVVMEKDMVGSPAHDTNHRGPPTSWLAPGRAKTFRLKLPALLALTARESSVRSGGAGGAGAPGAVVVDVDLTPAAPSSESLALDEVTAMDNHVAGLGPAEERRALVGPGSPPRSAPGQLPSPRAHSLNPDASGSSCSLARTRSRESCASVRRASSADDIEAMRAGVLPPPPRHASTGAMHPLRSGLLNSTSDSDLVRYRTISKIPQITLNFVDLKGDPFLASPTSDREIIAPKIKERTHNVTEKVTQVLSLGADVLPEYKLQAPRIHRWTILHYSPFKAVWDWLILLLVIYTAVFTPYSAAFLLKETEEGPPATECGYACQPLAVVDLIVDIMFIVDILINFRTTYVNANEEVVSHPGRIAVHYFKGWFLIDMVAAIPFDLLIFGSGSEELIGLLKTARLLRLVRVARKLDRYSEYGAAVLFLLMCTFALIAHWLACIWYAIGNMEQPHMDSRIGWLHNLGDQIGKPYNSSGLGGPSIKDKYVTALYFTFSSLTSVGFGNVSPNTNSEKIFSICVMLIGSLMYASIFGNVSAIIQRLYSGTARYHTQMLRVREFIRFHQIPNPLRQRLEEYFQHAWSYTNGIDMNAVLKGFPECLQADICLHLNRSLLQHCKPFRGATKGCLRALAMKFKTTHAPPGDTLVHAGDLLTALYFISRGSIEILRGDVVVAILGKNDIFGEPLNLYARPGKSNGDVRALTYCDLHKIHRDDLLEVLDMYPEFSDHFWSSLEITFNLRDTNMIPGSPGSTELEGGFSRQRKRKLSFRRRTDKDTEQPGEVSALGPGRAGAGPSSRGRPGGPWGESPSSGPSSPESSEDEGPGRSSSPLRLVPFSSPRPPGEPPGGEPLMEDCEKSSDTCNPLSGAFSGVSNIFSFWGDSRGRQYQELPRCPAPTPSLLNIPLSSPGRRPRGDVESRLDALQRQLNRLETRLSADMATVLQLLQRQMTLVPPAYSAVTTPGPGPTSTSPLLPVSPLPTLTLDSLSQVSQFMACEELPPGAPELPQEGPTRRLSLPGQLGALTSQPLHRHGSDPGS

| SMILES | hERG current change (%, negative = inhibition) at 1uM |
| --- | --- |
| O=C(Cc1cccc2ccccc12)Nc1ccc(Br)cc1C(=O)O | 9.56% |
| Cc1ccc(CCC(=O)Nc2nccs2)o1 | 11.1% |
| Cc1c(Cl)c(C(=O)NNC(=S)Nc2ccccc2)nn1C | -8.8% |
| CCN(CC(=O)Nc1ccccc1C(F)(F)F)C(=O)CCc1nc2sc3c(c2c(=O)[nH]1)CCCC3 | 8.67% |
| CCOC(=O)C1(Cc2cccc(OC)c2)CCN(C/C=C/c2ccc(OC)cc2)CC1 | -14.2% |
| Cc1ccccc1CC(=O)Nc1ccc(S(=O)(=O)N2CCOCC2)cc1 | 14.2% |
| Nc1nc(SCC(=O)OCc2ccccc2)[nH]c(=O)c1NC(=O)c1ccco1 | 0.057% |
| O=C(OCc1nc2ccccc2[nH]1)C12CC3CC(CC(C3)C1)C2 | 6.44% |
| COc1cc(/C=N/NC(=O)c2cc(C3CC3)[nH]n2)ccc1O | -1.46% |
| CCOc1ccccc1C1CC(=O)Nc2cc(OC)c(OC)cc21 (stereo not drawn) | 12.7% |
| CCn1c(SCC(=O)N2c3ccccc3CC2C)nnc1-c1ccco1 (stereo not drawn) | 4.56% |
| COc1cc(CN2CCN(c3cccc(C)c3C)CC2)cc([N+](=O)[O-])c1O | 9.28% |
| Clc1cccc(-c2nc(-c3ccc(-c4nn[nH]n4)cc3)no2)c1 | 8.94% |
| CCOC(=O)c1sc(NC(=S)NC(=O)c2ccccc2Cl)c(C(=O)OCC)c1C | 7.97% |
| COc1cc(CNC(C)(C)CO)ccc1OCC(=O)NC(C)(C)C | 6.44% |
| CCC(=O)N1CCc2cc(Br)cc(S(=O)(=O)NCCCN(CC)Cc3ccccc3)c21 | 4.43% |
| CC12CC(NC(=O)N1c1cccc(C(=O)Nc3ncn[nH]3)c1)c1ccccc1O2 (stereo not drawn) | -5.52% |
| Cc1ccc(C(=O)N2C(CC(=O)Nc3ccc(Cl)cc3)C(=O)NC3CCCCC32)cc1 (stereo not drawn) | 4.71% |
| COc1ccc(C(=O)Nc2ccc(C(=O)NCCc3ccc(OC)c(OC)c3)cc2)cc1 | 5.39% |
| Cc1cccc(-n2c(C)nc3ccccc3c2=O)c1C | 5.7% |
| COC(=O)COc1ccc(Cl)cc1C1Nc2ccccc2C(=O)N1c1ccc(OC)cc1 (stereo not drawn) | 1.01% |

| SMILES | hERG current change (%, negative = inhibition) at 1uM |
| --- | --- |
| O=S(=O)(c1ccccc1)c1nc(-c2cccs2)oc1NCC1CCCO1 (stereo not drawn) | 10.8% |
| CCn1c(COc2ccc(Cl)cc2)nnc1SCc1nc2ccccc2[nH]1 | -11.9% |
| CN(C)c1cccc(C(=O)N2CCCC(CCC(=O)NCc3ccccc3F)C2)c1 (stereo not drawn) | 12.8% |
| O=C(/C=C/c1ccc(O)c(O)c1)NC(=O)c1ccccc1O | 13.3% |
| NS(=O)(=O)c1ccc(N=Cc2ccc(Br)s2)cc1 | 7.51% |
| CCOc1ccc(NC(=O)C2CCN(S(=O)(=O)c3ccc4c(c3)CC(C)N4C(C)=O)CC2)cc1 (stereo not drawn) | 10.7% |
| C/C(=N\NC(=O)c1nnn(-c2nonc2N)c1-c1cccs1)c1cccc(O)c1 | 2.42% |
| CC1=C(C(=O)NC2CC(C)(C)Cc3c2cnn3-c2ccc(C)cc2)OCCO1 (stereo not drawn) | -8.97% |
| COc1ccc(NC(=O)CCC(=O)N/N=C/c2cccnc2)cc1 | 7.64% |
| C[C@@H]1CCC2[C@](C)(CO)[C@@H](O)CC[C@]2(C)[C@@]12CC[C@@](CO)(CC(=O)[O-])O2.[Na+] (stereo partly drawn) | 12.5% |
| CC(=O)N1c2ccc(S(=O)(=O)NCCc3ccc(Cl)cc3)cc2CC1C (stereo not drawn) | 15.8% |
| Cc1ccc(-n2nc3ccc(NC(=S)NC(=O)/C=C/c4ccco4)cc3n2)cc1 | 2.22% |
| COc1cccc(/C=C/C(=O)NCC2CCCCC2)c1 | 13.8% |
| CCCCC(c1nnnn1CS(=O)(=O)c1ccc(C)cc1)N1CCN(C)CC1.Cl (stereo not drawn) | 8.9% |
| Cc1cccn2c(=O)c(/C=C(\C#N)S(=O)(=O)c3ccccc3)c(N3CCC(C(N)=O)CC3)nc12 | 10.1% |
| CCC(C(=O)NC(C)(C)C)N(C(=O)c1ccc(Cl)nc1)C1CCCC1 (stereo not drawn) | 10.1% |
| Cc1ccc(Oc2cc(N3CCOCC3)nc(-c3ccccc3)n2)cc1 | 0.258% |
| CCCCOc1ccc2ccccc2c1C=O | 18.6% |
| CC(=O)c1cccc(NC(=O)CCc2nnc3ccc(NCc4ccc5c(c4)OCO5)nn23)c1 | 17% |
| Cc1nnc(-c2cnn(-c3ccccc3)c2N)n1Cc1ccncc1 | 2.39% |
| COc1cc2c(cc1OC)C(C)N(C(=O)c1cc(Cl)nc(Cl)c1)CC2 (stereo not drawn) | 12.2% |

| SMILES | hERG current change (%, negative = inhibition) at 1uM |
| --- | --- |
| O=C(Nc1ccc(F)cc1)c1ccc(Br)c(S(=O)(=O)N2CCOCC2)c1 | -2.86% |
| Cc1ccc(OCC(=O)NNC(=O)CCC(=O)Nc2ccc(C)cc2C)cc1 | 17.4% |
| CC(=O)Nc1cccc(NC(=O)CCn2c(=O)sc3ccccc32)c1 | 22.2% |
| O=C(NC1CCCCC1)C(c1ccco1)N(C(=O)c1csnn1)c1ccccc1 (stereo not drawn) | 7.66% |
| CN(C)S(=O)(=O)N1CCC(CO)(CCc2ccccc2)CC1 | 12% |
| COC(=O)CCCC1=CC2=CC(=O)C(C)(OC(=O)c3cccs3)C(=O)C2=CN1C1CC1 (stereo not drawn) | 14.7% |
| O=C(Nn1cnnc1)c1cccc(S(=O)(=O)N2CCOCC2)c1 | 14.6% |
| CSCC[C@H](NC(=O)OC(C)(C)C)C(=O)N/N=C/c1cc2ccc(C)cc2nc1Cl | 7.11% |
| CCc1ccccc1NC(=O)CCc1nc(-c2ccc(C)cc2)no1 | 9.68% |
| CCn1c2ccccc2c2nnc(SCC(=O)N3CC(C)OC(C)C3)nc21 (stereo not drawn) | 0.801% |
| O=C(COc1ccccc1[N+](=O)[O-])NCc1cccnc1 | -1.72% |
| O=C(N/N=C/c1ccco1)C12CC3CC(CC(C3)C1)C2 | 16.7% |
| COc1cc2c(cc1NC(=O)COC(=O)[C@@H](NS(=O)(=O)c1cccc(Cl)c1)C(C)C)oc1ccccc12 | 16.3% |
| CCOc1ccc(CN2CCNC(=O)C2CC(=O)NCCN2CCOC2=O)cc1 (stereo not drawn) | 11.8% |
| COc1ccc(NC(=O)C/C(C)=N/NC(=O)c2ccco2)c([N+](=O)[O-])c1 | -5.76% |
| CCOc1ccccc1C1C(C#N)=C(N)Oc2cc(C)n(C)c(=O)c21 (stereo not drawn) | 6.55% |
| Cc1cc(C(=O)OCC(=O)NC2CCCCC2)c(C)o1 | 13.3% |
| O=[N+]([O-])c1sccc1CS(=O)(=O)c1ccccc1 | 3.21% |
| C[C@@H](C(=O)Nc1ccc2ccccc2c1)[C@H]1C[C@]1(C)[C@H](NC(=O)c1cnccn1)c1ccccc1 | 14.6% |
| COc1ccc(S(=O)(=O)N(C)CC(=O)Nc2ccc3c(c2)OCO3)cc1 | -8.35% |
| CC(C)N1CC23C=CC(O2)C(C(=O)OCc2ccccc2)C3C1=O (stereo not drawn) | 1.79% |

| SMILES | hERG current change (%, negative = inhibition) at 1uM |
| --- | --- |
| COc1ccc(C2CC(c3cccc(C)c3)n3nc(N)nc3N2)cc1 (stereo not drawn) | -8.57% |
| Cc1ccc(CNC(=O)C2CC(c3cccc(F)c3)=NO2)cc1 (stereo not drawn) | 10.2% |
| COc1ccc(-n2c(C(C)(C)C)csc2=Nc2c(C)n(C)n(-c3ccccc3)c2=O)cc1 | 8.01% |
| O=C(Nc1ccccc1)c1nnsc1S(=O)(=O)c1ccc(Cl)cc1 | 7.55% |
| C=CCNC(=S)NNC(=O)c1cccc2ccccc12 | 6.67% |
| CCCCN(C)CCCNC(=O)c1cc(Nc2ccc(OC)c(OC)c2)nc2ccccc12 | 12% |
| O=C1[C@H]2[C@H](C=CC[C@H]2C(=O)N2CCOCC2)CCN1Cc1ccccc1 | 2.87% |
| CCCCNC(=O)C1Cc2cc(S(=O)(=O)N3CCCC3)ccc2N1C(C)=O (stereo not drawn) | 10.6% |
| CCCc1cc(=O)c2ccc(OC/C(C)=N/O)cc2o1 | 9.62% |
| Cc1c(OCC(=O)NCCCN2CCOCC2)ccc2c(-c3ccccc3)cc(=O)oc12 | 3.35% |
| O=C(O)CCc1[nH]c2ccccc2c1Sc1ccccc1 | 18.4% |
| CN(C)S(=O)(=O)c1ccc(C(=O)OCC(=O)Nc2cccnc2Cl)cc1 | 11.6% |
| CN(C)c1ccc(C(CC(=O)O)C(=O)O)cc1 (stereo not drawn) | 12.7% |
| CN(C)S(=O)(=O)c1cccc(NC(=O)COC(=O)c2cc(-c3cccc(Br)c3)nc3ccccc23)c1 | 6.67% |
| CC(C)CCN1CCN(Cc2cccn2-c2nccs2)CC1CCO (stereo not drawn) | -17.6% |
| Cc1cccc(N=Nc2c(C)nn(-c3ccccc3)c2N)c1C | 4.34% |
| Cc1cccc(-c2noc(CN(C)C(=O)c3ccc4c(c3)OCO4)n2)c1 | 8.63% |
| CCOc1ccccc1N=NC1C(=O)N(C(N)=S)N=C1C (stereo not drawn) | -2.02% |
| Cc1nn(C2CCS(=O)(=O)C2)c(Cl)c1/C=C/C(=O)OCC(=O)c1c[nH]c2ccccc12 (stereo not drawn) | 3.66% |
| COc1ccc(NC(=O)[C@@H]2CC=C[C@@H]3CCN(Cc4ccccc4)C(=O)[C@@H]32)cc1 | 10.7% |
| CS(=O)(=O)N1CCCC(c2nc(-c3ccc(S(=O)(=O)NCc4ccccc4)cc3)no2)C1 (stereo not drawn) | -0.704% |
